Results from PubChem BioAssay AID504332 (National Center for Advancing Translational Sciences (NCATS), 2011).
Screen size: about 350,000 compounds; about 31,000 (8.9%) were called active. Inconclusive means that the source gave no clear call. Such entries were picked first, then a sample of the others. The call rests on the fitted dose curve; in most records, active means well fitted inhibition curve with a large enough effect; inconclusive means small, poorly fitted or top-dose-only effect; inactive means no such curve, though single readings can be large or run the other way. A potency beside an inconclusive call is a rough fit, not a confirmed value.

The compounds below were run against Histone-lysine N-methyltransferase EHMT2 (Homo sapiens) (UniProt Q96KQ7) (assay: qHTS Assay for Inhibitors of Histone Lysine Methyltransferase G9a). Settings: G9a H3K9 monomethylation, AlphaScreen, 2 h; activity, negative = inhibition: at 59 µM (top of the series) unless noted.
UniProt Q96KQ7, sequence (Q96KQ7 whole entry, looked up): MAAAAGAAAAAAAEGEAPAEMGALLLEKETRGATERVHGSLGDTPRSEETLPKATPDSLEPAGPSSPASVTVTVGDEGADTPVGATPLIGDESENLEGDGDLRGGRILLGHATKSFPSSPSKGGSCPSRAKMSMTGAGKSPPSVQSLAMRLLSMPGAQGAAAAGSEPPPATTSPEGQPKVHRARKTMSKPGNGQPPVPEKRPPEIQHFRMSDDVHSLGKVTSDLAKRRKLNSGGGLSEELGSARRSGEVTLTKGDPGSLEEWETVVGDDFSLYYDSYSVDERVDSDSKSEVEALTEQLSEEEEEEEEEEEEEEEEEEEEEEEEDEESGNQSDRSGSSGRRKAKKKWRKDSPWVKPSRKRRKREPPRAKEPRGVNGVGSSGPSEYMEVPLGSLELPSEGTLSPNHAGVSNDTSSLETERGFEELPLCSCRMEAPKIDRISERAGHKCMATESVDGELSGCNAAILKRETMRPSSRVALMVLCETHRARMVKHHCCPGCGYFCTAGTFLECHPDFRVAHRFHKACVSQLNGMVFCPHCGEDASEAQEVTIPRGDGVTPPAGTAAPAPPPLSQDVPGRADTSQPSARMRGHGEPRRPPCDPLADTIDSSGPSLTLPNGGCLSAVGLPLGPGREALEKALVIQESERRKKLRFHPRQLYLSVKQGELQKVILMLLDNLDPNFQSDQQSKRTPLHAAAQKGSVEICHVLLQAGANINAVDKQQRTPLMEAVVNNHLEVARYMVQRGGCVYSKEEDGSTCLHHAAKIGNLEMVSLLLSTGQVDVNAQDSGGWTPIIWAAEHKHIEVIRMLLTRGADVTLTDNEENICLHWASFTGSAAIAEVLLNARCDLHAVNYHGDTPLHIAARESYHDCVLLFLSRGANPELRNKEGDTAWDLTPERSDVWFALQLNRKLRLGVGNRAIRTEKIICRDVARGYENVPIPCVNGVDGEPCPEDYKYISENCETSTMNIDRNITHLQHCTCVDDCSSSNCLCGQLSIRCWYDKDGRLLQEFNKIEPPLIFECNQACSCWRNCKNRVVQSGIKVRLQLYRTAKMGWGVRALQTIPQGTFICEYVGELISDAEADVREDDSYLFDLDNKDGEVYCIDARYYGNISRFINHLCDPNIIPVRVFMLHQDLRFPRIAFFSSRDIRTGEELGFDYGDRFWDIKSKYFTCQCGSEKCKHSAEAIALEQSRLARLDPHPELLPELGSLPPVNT
How it was run: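 AlphaScreen detection with an anti-monomethyl H3K9 antibody quantified product after a 2 h room-temperature reaction containing 500 nM biotinylated H3K9 peptide, 20 µM SAM and 20 nM enzyme, which had been preincubated 15 min with compound.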
Further: nearly all actives have a fitted effect of over 75% in size.
On the % scale 0 is the no-effect control and ±100 the full control effect; potency means the concentration at half of the fitted maximal effect; tags describe the fitted curve by direction and shape.

Row | SMILES | Potency | activity, negative = inhibition
1 | Cc1cnc(C)c(N2CCN(Cc3nc(-c4cccc(F)c4F)oc3C)CC2)n1 | inconclusive: 50.1 µM [inhibitor, partial curve] | –
2 | COc1ccc(NC(=O)c2[nH]ncc2[N+](=O)[O-])cc1 | inconclusive: 89.1 µM [inhibitor, single point] | –
3 | CCOc1ccc(CN(C(=O)/C=C/c2ccco2)C2CCS(=O)(=O)C2)cc1 (stereo not drawn) | active: 44.7 µM | –
4 | Cc1ccc(CCNC(=O)C23CN(Cc4ccccc4)CC2C(c2cccc([N+](=O)[O-])c2)=NO3)cc1 (stereo not drawn) | – | inconclusive: -81.8% [inhibitor] [at 12.7 µM]
5 | CCN(CC)C(=O)c1cccc(NC(=O)CC23CC4CC(CC(C4)C2)C3)c1 | inconclusive: 89.1 µM [inhibitor, single point] | –
6 | Nc1c(C(=O)N/N=C/c2cccnc2)oc2nc(-c3ccccc3)cc(-c3ccco3)c12 | inconclusive: 28.2 µM [inhibitor, single point] | –
7 | CC1CN(C(=O)/C(C#N)=C2\N=C(NC(=O)c3ccccc3Cl)c3ccccc32)CC(C)O1 (stereo not drawn) | inconclusive: 11.2 µM [inhibitor, partial curve, poor fit] | –
8 | Cc1cccc(Nc2nc(N)c([N+](=O)[O-])c(NCc3ccccc3)n2)c1 | – | inactive: -7.7% [at 12.7 µM]
9 | CCOc1ccc(S(=O)(=O)n2nc(C)c(S(=O)(=O)N3CCOCC3)c2C)cc1 | active: 50.1 µM | –
10 | Cc1cc(C)c(-n2c(C)cc(/C=C3/NC(=O)NC3=O)c2C)c(C)c1 | inconclusive: 28.2 µM [inhibitor, single point] | –
11 | COc1ccccc1NC(=O)Cc1noc(CSc2nnc(C)s2)n1 | inconclusive: 79.4 µM [inhibitor, single point] | –
12 | Nc1c(N)c2ccccc2oc1=O | inconclusive: 28.2 µM [inhibitor, single point] | –
13 | Cc1ccc(C)c(N2CCN(C(=O)c3cc4sccc4n3C)CC2)c1 | inconclusive: 8.91 µM [inhibitor, single point] | –
14 | COc1ccc(C(=O)CN2CCN(S(=O)(=O)c3cccc([N+](=O)[O-])c3)CC2)cc1 | inconclusive: 17.8 µM [inhibitor, single point] | –
15 | O=[N+]([O-])c1ccc(-c2ccc(/C=N/O)o2)cc1 | inconclusive: 63.1 µM [inhibitor, single point] | –
16 | COc1ccc(CCNC(=O)CCc2c(C)c3cc4c(C)coc4cc3oc2=O)cc1 | – | inactive: -6.44%
17 | COc1ccc(S(=O)(=O)NCc2cccs2)cc1 | inconclusive: 0.158 µM [inhibitor, partial curve, poor fit] | –
18 | CC(=O)c1ccc2noc(-c3ccc(C)cc3)c2c1 | – | inactive: 27.6% [at 102 µM]
19 | O=C(CCC(=O)c1cccs1)Nc1ccc(F)c(F)c1F | inconclusive: 100 µM [inhibitor, single point] | –
20 | N#CC(C#N)=Cc1cc2ccccc2nc1N1CCOCC1 | inconclusive: 10 µM [inhibitor, partial curve, poor fit] | –
21 | COc1ccc(NC(=O)C2CCCN2S(=O)(=O)c2ccc3c(c2)CCC(=O)N3)cc1 (stereo not drawn) | inconclusive: 79.4 µM [inhibitor, single point] | –
22 | CN(C(=O)COC(=O)c1cc(-c2ccco2)nc2ccccc12)C1CCS(=O)(=O)C1 (stereo not drawn) | active: 2.51 µM | –

Row | SMILES | Potency | activity, negative = inhibition
23 | CCCCn1[nH]c(-c2ccccc2)cc1=O | – | inactive: 30.6%
24 | CCN(CC)c1ccc(O)c(C=Nc2ccc(C)c(C)c2)c1 | – | inactive: -47.9% [at 102 µM]
25 | C=CCn1c(SCC(=O)Nc2nc(C)cs2)nnc1C(C)NC(=O)c1ccccc1Cl (stereo not drawn) | inconclusive: 25.1 µM [inhibitor, single point] | –
26 | Cc1onc(-c2c(F)cccc2Cl)c1C(=O)NCc1ccco1 | – | inactive: -18.4%
27 | COc1ccc(C)cc1S(=O)(=O)NCC(c1ccc(N(C)C)cc1)N1CCc2ccccc21 (stereo not drawn) | active: 10 µM | –
28 | CCOc1cc(/C=C/c2cc(C(=O)O)c3ccccc3n2)ccc1O | – | inactive: -3.96%
29 | O=C(CN1CCOCC1)Nc1c2c(nc3ccccc13)N(Cc1ccccc1)CC2 | inconclusive: 5.01 µM [inhibitor, full curve, poor fit] | –
30 | COc1ccc(Cn2c(C)ccc2C)cc1 | inconclusive: 89.1 µM [inhibitor, single point] | –
31 | COc1cc(OC)c(/C=N/n2c(C)nnc2C)c(OC)c1 | inconclusive: 0.631 µM [inhibitor, full curve, poor fit] | –
32 | CCOc1ccccc1C1C(C#N)=C(N)SC(N)=C1C#N | inconclusive: 31.6 µM [inhibitor, single point] | –
33 | COc1ccc(CCC(=O)OCC(=O)c2c(N)n(CC(C)C)c(=O)n(C)c2=O)cc1 | active: 79.4 µM | –
34 | C=CCn1c(C)cc(C(=O)CSc2nc3ccccc3[nH]2)c1C | – | inconclusive: -58.2% [inhibitor]
35 | CCOC(=O)c1cnc2ccc(Cl)cc2c1NCCN(C)C | inconclusive: 20 µM [inhibitor, single point] | –
36 | COCCOC(=O)c1sc(=S)n(CCOC)c1N | inconclusive: 39.8 µM [inhibitor, single point] | –
37 | O=C(O)c1ccc(-c2ccc(/C=N/Nc3ccc([N+](=O)[O-])cc3)o2)cc1 | active: 50.1 µM | –
38 | O=C(Nc1ccc(S(=O)(=O)NCc2cccnc2)cc1)c1ccccc1Cl | inconclusive: 25.1 µM [inhibitor, single point] | –
39 | COc1cccc(/C=N/NC(=O)CSc2ccccc2C)c1OC | inconclusive: 79.4 µM [inhibitor, single point] | –
40 | CCc1ccc(C2C(C(=O)Nc3ccc(Cl)cc3)=C(C)Nc3ncnn32)cc1 (stereo not drawn) | – | inactive: 1.14%
41 | O=C(COc1ccccc1C(=O)N/N=C\c1ccc(O)c(O)c1)N/N=C/c1ccc(O)c(O)c1 | inconclusive: 3.55 µM [inhibitor, full curve, poor fit] | –
42 | COc1cc2c3c(c1)c(C1=NC(=S)NC1=O)c(O)n3C(C)(C)C=C2C | inconclusive: 89.1 µM [inhibitor, single point] | –
43 | CCN(CC)S(=O)(=O)c1cccc(NC(=O)C2SC(=Nc3ccc(C)cc3C)C(C(=O)NC(C)COC)=C2N)c1 (stereo not drawn) | inconclusive: 22.4 µM [inhibitor, partial curve, poor fit] | –
